Over roughly 33,000 sequences, “E-score (-0.5 to 0.5)” has its median near -0.054; the highest 2% begin near 0.35. The list shows a part of the results.
These sequences were tested against T1, Stb5 (UniProt P38699) (assay: PBM E-score (8-mer binding enrichment) (E-score (-0.5 to 0.5)); higher = stronger / more preferred TF binding; most listed sequences are background and not binding sites). Conditions: protein concentration: 200 nM; construct: GST-full length.
T1 sequence: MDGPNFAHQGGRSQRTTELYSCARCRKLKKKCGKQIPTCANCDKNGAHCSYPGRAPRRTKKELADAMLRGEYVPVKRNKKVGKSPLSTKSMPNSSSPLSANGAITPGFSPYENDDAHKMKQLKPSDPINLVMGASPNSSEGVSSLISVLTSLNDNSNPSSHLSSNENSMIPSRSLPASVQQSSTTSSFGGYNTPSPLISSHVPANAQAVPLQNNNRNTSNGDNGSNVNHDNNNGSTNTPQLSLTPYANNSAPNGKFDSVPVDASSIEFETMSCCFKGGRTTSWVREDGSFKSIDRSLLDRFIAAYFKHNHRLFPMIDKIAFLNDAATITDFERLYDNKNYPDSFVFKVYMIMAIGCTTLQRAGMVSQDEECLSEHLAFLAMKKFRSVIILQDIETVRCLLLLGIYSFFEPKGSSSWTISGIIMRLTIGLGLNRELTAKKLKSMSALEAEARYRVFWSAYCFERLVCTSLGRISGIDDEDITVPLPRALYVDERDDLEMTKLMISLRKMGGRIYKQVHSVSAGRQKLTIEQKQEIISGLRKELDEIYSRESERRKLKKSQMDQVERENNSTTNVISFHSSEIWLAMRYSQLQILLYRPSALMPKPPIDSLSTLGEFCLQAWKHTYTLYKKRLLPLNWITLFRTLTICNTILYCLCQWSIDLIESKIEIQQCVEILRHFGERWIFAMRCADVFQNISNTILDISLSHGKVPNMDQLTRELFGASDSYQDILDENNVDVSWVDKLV
Summary of the method: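 Using PURExpress in vitro transcription/translation, GST-tagged yeast transcription factors were made in full-length or DNA-binding-domain form. These were applied at about 100-200 nM to double-stranded universal all-10-mer Agilent arrays, and bound protein was detected with fluorescent anti-GST. Scans were normalised with masliner before the Universal PBM Analysis Suite assigned E-scores to ungapped eight-base words pooled with their reverse complements.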

Row | Sequence | PBM E-score
1 | GGCGCTAA | 0.248
2 | AGACGTTG | -0.225
3 | ACCGGAAC | 0.29
4 | ACCCGTTG | 0.117
5 | TAGGACCA | -0.145
6 | CGTGCGAC | 0.0989
7 | CATCCAAA | -0.0824
8 | AGTGGCAG | -0.156
9 | ATTATATG | -0.0893
10 | GGTTCTCA | -0.0445
11 | CACTTCGG | 0.116
12 | CTCAATGA | -0.256
13 | CCCCGTAG | 0.176
14 | TAACATTA | -0.0792
15 | AGCAAAGC | -0.121
16 | CCTCACGA | -0.179
17 | TGCGAAAA | 0.0823
18 | ATAATTCC | 0.256
19 | GTCCGGGA | 0.192
20 | ATCTCACA | -0.305
21 | CCAATATC | -0.0804
22 | ACCTACCC | 0.0642

Row | Sequence | PBM E-score
23 | CGCATGAC | -0.106
24 | TCGTGCAA | -0.175
25 | CCGGCTTC | 0.15
26 | AAGTTGAT | -0.0616
27 | GAGGGTGC | -0.0689
28 | CATAATCA | -0.0813
29 | CCTCTCTC | -0.203
30 | AGTGTCTG | -0.294
31 | ACTGATGC | -0.0507
32 | ACTTATTC | 0.142
33 | ACCCGGTC | 0.204
34 | AAGCTTCG | -0.036
35 | AAATTCCA | -0.117
36 | GCACGGCA | 0.145
37 | TCAGAGCA | -0.227
38 | GGGAGGTA | -0.0504
39 | ATATGATA | 0.0733
40 | ACGCTGTG | -0.0747
41 | GACTTAAC | 0.162
42 | ACTCAAAT | -0.142
43 | ACAACAAC | -0.241
44 | AATTAATA | 0.064

Row | Sequence | PBM E-score
45 | CGCTCCAG | 0.13
46 | GAGTGCGC | 0.1
47 | ATCACGTG | -0.114
48 | ATAATATA | 0.154
49 | AATCAAGC | -0.0303
50 | AGACACCC | -0.231
51 | CAACTTAC | -0.0649
52 | CTGGCCCA | -0.253
53 | AGGTGTCG | 0.0858
54 | AGCCGCTA | 0.173
55 | CATCAGGA | 0.0158
56 | GTAGCGGA | 0.292
57 | ATTGGCAA | -0.286
58 | CGTCGGGA | 0.337
59 | CTGGTCGC | -0.00608
60 | ATTTCCCG | 0.262
61 | ACGCGGAT | 0.13
62 | ATCACGCA | -0.0917
63 | AAAGCGCT | 0.117
64 | TAGAGGAA | -0.265
65 | AAAGGTCT | -0.0618
66 | AGAGTGTA | -0.142

Row | Sequence | PBM E-score
67 | ATAGAACA | -0.145
68 | CCTGTTAA | -0.32
69 | CGTCACTA | -0.00179
70 | AGCGGCAG | 0.276
71 | CCAATCAG | -0.374
72 | ATGTACTA | -0.0681
73 | ACCTTTAG | 0.0714
74 | CCGTGTTA | 0.141
75 | ACTAAGGC | 0.0655
76 | TCACGTAA | -0.272
77 | GTCGATTA | -0.276
78 | CGGCCAAA | 0.129
79 | CACCGCTA | 0.388
80 | ATTGTTAA | 0.00646
81 | CTGTTAAG | -0.199
82 | GCTTGACA | -0.0722
83 | AACTGTGT | -0.0455
84 | AGCAAGCA | -0.263
85 | GACGCTGA | -0.023
86 | GCCCCCGC | 0.256
87 | ACGGCCAT | 0.276
88 | CGAGCAAC | 0.0946

Row | Sequence | PBM E-score
89 | TCCATGAA | 0.102
90 | GGTTACCA | 0.098
91 | CTCGTACA | -0.178
92 | TAGTTTGA | 0.00391
93 | TATTCACA | 0.00428
94 | CGGGAATC | 0.188
95 | GCTGGGCC | -0.0948
96 | CACTCGCG | 0.0937
97 | GAGAAACC | 0.116
98 | ACCTATGG | -0.128
99 | CTATCCCA | -0.183
100 | AGACGAGG | -0.101
101 | CCTCCTTA | -0.215
102 | AGTAATTA | -0.159
103 | ACTGTTCG | -0.0486
104 | ATAACGCC | 0.359
105 | AACTCTTC | -0.102
106 | TAAACGTA | -0.195
107 | ATCGCGTA | -0.0676
108 | ACGTGTGA | -0.186
109 | AACCGGTG | 0.306
110 | CAACTGAG | -0.139
